{
  "source": "paper PMC9911399",
  "about": "“Two distinct binding modes provide the RNA-binding protein RbFox with extraordinary sequence specificity”",
  "binders": {"B1": {"name": "UGCUCGA (DNA:RNA)", "RNA": "GGGAGACCGGAAUUCAGAUUGUCCUGCUCGAUUAAAUCCCGUCGUAGCCACCA", "DNA 1": "CAATCTGAATTCCGGTCTCCC", "DNA 2": "TGGTGGCTACGACGGGATT"}, "B2": {"name": "AUAGAAA (DNA:RNA)", "RNA": "B1 RNA with U25A, G26U, C27A, U28G, C29A, G30A", "DNA 1": "CAATCTGAATTCCGGTCTCCC", "DNA 2": "TGGTGGCTACGACGGGATT"}, "B3": {"name": "CAAGCUG (DNA:RNA)", "RNA": "B1 RNA with U25C, G26A, C27A, U28G, G30U, A31G", "DNA 1": "CAATCTGAATTCCGGTCTCCC", "DNA 2": "TGGTGGCTACGACGGGATT"}, "B4": {"name": "GCUGGAG (DNA:RNA)", "RNA": "GGGAGACCGGAAUUCAGAUUGUCCGCUGGAGUUAAAUCCCGUCGUAGCCACCA", "DNA 1": "CAATCTGAATTCCGGTCTCCC", "DNA 2": "TGGTGGCTACGACGGGATT"}, "B5": {"name": "ACAGGAU (DNA:RNA)", "RNA": "B4 RNA with G25A, U27A, G31U", "DNA 1": "CAATCTGAATTCCGGTCTCCC", "DNA 2": "TGGTGGCTACGACGGGATT"}, "B6": {"name": "AAGGAAG (DNA:RNA)", "RNA": "B4 RNA with G25A, C26A, U27G, G29A", "DNA 1": "CAATCTGAATTCCGGTCTCCC", "DNA 2": "TGGTGGCTACGACGGGATT"}, "B7": {"name": "CUAAGUC (DNA:RNA)", "RNA": "B4 RNA with G25C, C26U, U27A, G28A, A30U, G31C", "DNA 1": "CAATCTGAATTCCGGTCTCCC", "DNA 2": "TGGTGGCTACGACGGGATT"}, "B8": {"name": "ACCGCUC (DNA:RNA)", "RNA": "B4 RNA with G25A, U27C, G29C, A30U, G31C", "DNA 1": "CAATCTGAATTCCGGTCTCCC", "DNA 2": "TGGTGGCTACGACGGGATT"}, "B9": {"name": "ACUUUUU (DNA:RNA)", "RNA": "B4 RNA with G25A, G28U, G29U, A30U, G31U", "DNA 1": "CAATCTGAATTCCGGTCTCCC", "DNA 2": "TGGTGGCTACGACGGGATT"}, "B10": {"name": "GACCUAU (DNA:RNA)", "RNA": "B4 RNA with C26A, U27C, G28C, G29U, G31U", "DNA 1": "CAATCTGAATTCCGGTCTCCC", "DNA 2": "TGGTGGCTACGACGGGATT"}, "B11": {"name": "UUAUAAC (DNA:RNA)", "RNA": "B1 RNA with G26U, C27A, C29A, G30A, A31C", "DNA 1": "CAATCTGAATTCCGGTCTCCC", "DNA 2": "TGGTGGCTACGACGGGATT"}, "B12": {"name": "CAGACCU (DNA:RNA)", "RNA": "B1 RNA with U25C, G26A, C27G, U28A, G30C, A31U", "DNA 1": "CAATCTGAATTCCGGTCTCCC", "DNA 2": "TGGTGGCTACGACGGGATT"}, "B13": {"name": "UUGACAA (DNA:RNA)", "RNA": "B1 RNA with G26U, C27G, U28A, G30A", "DNA 1": "CAATCTGAATTCCGGTCTCCC", "DNA 2": "TGGTGGCTACGACGGGATT"}, "B14": {"name": "GGCGAAC (DNA:RNA)", "RNA": "B4 RNA with C26G, U27C, G29A, G31C", "DNA 1": "CAATCTGAATTCCGGTCTCCC", "DNA 2": "TGGTGGCTACGACGGGATT"}, "B15": {"name": "CAUGGUU (DNA:RNA)", "RNA": "B4 RNA with G25C, C26A, A30U, G31U", "DNA 1": "CAATCTGAATTCCGGTCTCCC", "DNA 2": "TGGTGGCTACGACGGGATT"}, "B16": {"name": "ACACCGC (DNA:RNA)", "RNA": "B1 RNA with U25A, G26C, C27A, U28C, A31C", "DNA 1": "CAATCTGAATTCCGGTCTCCC", "DNA 2": "TGGTGGCTACGACGGGATT"}, "B17": {"name": "AGUAAGU (DNA:RNA)", "RNA": "B1 RNA with U25A, C27U, U28A, C29A, A31U", "DNA 1": "CAATCTGAATTCCGGTCTCCC", "DNA 2": "TGGTGGCTACGACGGGATT"}, "B18": {"name": "AAUUGAA (DNA:RNA)", "RNA": "B4 RNA with G25A, C26A, G28U, G31A", "DNA 1": "CAATCTGAATTCCGGTCTCCC", "DNA 2": "TGGTGGCTACGACGGGATT"}, "B19": {"name": "GAGACAC (DNA:RNA)", "RNA": "B4 RNA with C26A, U27G, G28A, G29C, G31C", "DNA 1": "CAATCTGAATTCCGGTCTCCC", "DNA 2": "TGGTGGCTACGACGGGATT"}, "B20": {"name": "GCCAUCG (DNA:RNA)", "RNA": "B4 RNA with U27C, G28A, G29U, A30C", "DNA 1": "CAATCTGAATTCCGGTCTCCC", "DNA 2": "TGGTGGCTACGACGGGATT"}, "B21": {"name": "UUUAAAA (DNA:RNA)", "RNA": "B4 RNA with G25U, C26U, G28A, G29A, G31A", "DNA 1": "CAATCTGAATTCCGGTCTCCC", "DNA 2": "TGGTGGCTACGACGGGATT"}, "B22": {"name": "GAACUAC (DNA:RNA)", "RNA": "B4 RNA with C26A, U27A, G28C, G29U, G31C", "DNA 1": "CAATCTGAATTCCGGTCTCCC", "DNA 2": "TGGTGGCTACGACGGGATT"}, "B23": {"name": "GAUGACC (DNA:RNA)", "RNA": "B4 RNA with C26A, G29A, A30C, G31C", "DNA 1": "CAATCTGAATTCCGGTCTCCC", "DNA 2": "TGGTGGCTACGACGGGATT"}, "B24": {"name": "GGUAAGU (DNA:RNA)", "RNA": "B4 RNA with C26G, G28A, G29A, A30G, G31U", "DNA 1": "CAATCTGAATTCCGGTCTCCC", "DNA 2": "TGGTGGCTACGACGGGATT"}, "B25": {"name": "AGGGGUC (DNA:RNA)", "RNA": "B4 RNA with G25A, C26G, U27G, A30U, G31C", "DNA 1": "CAATCTGAATTCCGGTCTCCC", "DNA 2": "TGGTGGCTACGACGGGATT"}, "B26": {"name": "AAUUAUA (DNA:RNA)", "RNA": "B1 RNA with U25A, G26A, C27U, C29A, G30U", "DNA 1": "CAATCTGAATTCCGGTCTCCC", "DNA 2": "TGGTGGCTACGACGGGATT"}, "B27": {"name": "GCUAAUA (DNA:RNA)", "RNA": "B4 RNA with G28A, G29A, A30U, G31A", "DNA 1": "CAATCTGAATTCCGGTCTCCC", "DNA 2": "TGGTGGCTACGACGGGATT"}, "B28": {"name": "CAUUUUC (DNA:RNA)", "RNA": "B4 RNA with G25C, C26A, G28U, G29U, A30U, G31C", "DNA 1": "CAATCTGAATTCCGGTCTCCC", "DNA 2": "TGGTGGCTACGACGGGATT"}, "B29": {"name": "GGGGUAU (DNA:RNA)", "RNA": "B4 RNA with C26G, U27G, G29U, G31U", "DNA 1": "CAATCTGAATTCCGGTCTCCC", "DNA 2": "TGGTGGCTACGACGGGATT"}, "B30": {"name": "CAUGGAA (DNA:RNA)", "RNA": "B4 RNA with G25C, C26A, G31A", "DNA 1": "CAATCTGAATTCCGGTCTCCC", "DNA 2": "TGGTGGCTACGACGGGATT"}, "B31": {"name": "CACAUGG (DNA:RNA)", "RNA": "B1 RNA with U25C, G26A, U28A, C29U, A31G", "DNA 1": "CAATCTGAATTCCGGTCTCCC", "DNA 2": "TGGTGGCTACGACGGGATT"}},
  "note": "Positions count from the first letter of the chain named. Some of the results follow.",
  "data": [
    {"target": "T1, RBFOX1 RRM (Homo sapiens, UniProt Q9NWB1 109-208)", "T1 sequence": "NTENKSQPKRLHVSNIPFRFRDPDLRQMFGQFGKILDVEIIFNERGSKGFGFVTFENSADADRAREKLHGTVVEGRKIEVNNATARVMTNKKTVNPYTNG", "assay": "EMSA; HiTS-Eq, 1 nM pool, 10 min; buffer printed only for the single-RNA assays: 10 mM Tris pH 7.5, 150 mM NaCl, 3.4 mM EDTA, 0.001% NP-40, 30 C", "details": "tags: His6 N-terminal (pET28a); label: 5' 32P", "method_in_brief": "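Purified RbFox RRM (wild type or mutant) was equilibrated for 10 min in 50 µL with 1 nM of a 5′-radiolabelled pool of RNA with 7 randomized nucleotides, its flanks annealed to DNA oligonucleotides, across increasing protein concentrations. Free RNA was separated by 8% native PAGE, excised, reverse-transcribed, PCR-barcoded and sequenced on an Illumina HiSeq 2500. Relative association constants came from read-count changes of each variant against the control reaction, normalised to the cognate motif.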", "values": [
      {"binder": "B1", "binding signal": "0.0363 KA relative to UGCAUGU"},
      {"binder": "B2", "binding signal": "0.00278 KA relative to UGCAUGU"},
      {"binder": "B3", "binding signal": "0.00668 KA relative to UGCAUGU"},
      {"binder": "B4", "binding signal": "0.0123 KA relative to UGCAUGU"},
      {"binder": "B5", "binding signal": "0.00648 KA relative to UGCAUGU"},
      {"binder": "B6", "binding signal": "0.00984 KA relative to UGCAUGU"},
      {"binder": "B7", "binding signal": "0.00496 KA relative to UGCAUGU"},
      {"binder": "B8", "binding signal": "0.00293 KA relative to UGCAUGU"},
      {"binder": "B9", "binding signal": "0.00519 KA relative to UGCAUGU"},
      {"binder": "B10", "binding signal": "0.0038 KA relative to UGCAUGU"},
      {"binder": "B11", "binding signal": "0.00364 KA relative to UGCAUGU"},
      {"binder": "B12", "binding signal": "0.00272 KA relative to UGCAUGU"},
      {"binder": "B13", "binding signal": "0.00852 KA relative to UGCAUGU"},
      {"binder": "B14", "binding signal": "0.0211 KA relative to UGCAUGU"},
      {"binder": "B15", "binding signal": "0.0143 KA relative to UGCAUGU"},
      {"binder": "B16", "binding signal": "0.000714 KA relative to UGCAUGU"},
      {"binder": "B17", "binding signal": "0.00858 KA relative to UGCAUGU"},
      {"binder": "B18", "binding signal": "0.0108 KA relative to UGCAUGU"},
      {"binder": "B19", "binding signal": "0.00951 KA relative to UGCAUGU"},
      {"binder": "B20", "binding signal": "0.0111 KA relative to UGCAUGU"},
      {"binder": "B21", "binding signal": "0.00108 KA relative to UGCAUGU"},
      {"binder": "B22", "binding signal": "0.00432 KA relative to UGCAUGU"},
      {"binder": "B23", "binding signal": "0.00916 KA relative to UGCAUGU"},
      {"binder": "B24", "binding signal": "0.00762 KA relative to UGCAUGU"},
      {"binder": "B25", "binding signal": "0.0243 KA relative to UGCAUGU"},
      {"binder": "B26", "binding signal": "0.00219 KA relative to UGCAUGU"},
      {"binder": "B27", "binding signal": "0.00169 KA relative to UGCAUGU"},
      {"binder": "B28", "binding signal": "0.00705 KA relative to UGCAUGU"},
      {"binder": "B29", "binding signal": "0.0265 KA relative to UGCAUGU"},
      {"binder": "B30", "binding signal": "0.00993 KA relative to UGCAUGU"},
      {"binder": "B31", "binding signal": "0.00862 KA relative to UGCAUGU"}
    ]}
  ]
}
